According to the supplement of paper PMC12067230:
Single values of this set are uncertain.
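Further: [psi-pin-] Saccharomyces cerevisiae expressing SupN fusions, induced by 100 µM Cu2SO4, selected 7 d at 30 °C without adenine and uracil, scored by deep sequencing of output versus input.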

Assay: amyloid nucleation score relative to library mode (yeast Sup35 reporter selection) (log enrichment difference); higher = more amyloid nucleation; sequences are the first 22 residues of the Bri2 peptide extended by up to 12 random residues
Details: random library (experiment): 1;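 active = nucleation score significantly above 0 at FDR 0.05; inactive = not significantly above 0 or absent from output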
In the case of EASNCFAIRHFENKFAVETLICCSWG, the amyloid nucleation score is reported as 8.07.
With EASNCFAIRHFENKFAVETLICRKRCNLSYGAGQ the amyloid nucleation score was “inactive”.
In the case of EASNCFAIRHFENKFAVETLICNARFVLVLTHST, the amyloid nucleation score is reported as “inactive”.
In the case of EASNCFAIRHFENKFAVETLICTVGTLFLVHVAW, the amyloid nucleation score is reported as “inactive”.
With EASNCFAIRHFENKFAVETLICCTHYEASRYRRQ the amyloid nucleation score was 3.31.
In the case of EASNCFAIRHFENKFAVETLICLVATFNAMLGLG, the amyloid nucleation score is reported as “inactive”.
For EASNCFAIRHFENKFAVETLICRCVIRDMVMVLG, the amyloid nucleation score was “inactive”.
For EASNCFAIRHFENKFAVETLICATEWTPVCGWRW, the amyloid nucleation score was “inactive”.
In the case of EASNCFAIRHFENKFAVETLICGLRWMELEALVG, the amyloid nucleation score is reported as “inactive”.
Work on EASNCFAIRHFENKFAVETLICLRISLSNGCVCC yielded an amyloid nucleation score of 4.53.
With EASNCFAIRHFENKFAVETLICRVLGWFGHVHGM the amyloid nucleation score was “inactive”.
With EASNCFAIRHFENKFAVETLICFRYSFPIVCFVS the amyloid nucleation score was 4.27.
Sequence EASNCFAIRHFENKFAVETLICASPEELGRSIKR has an amyloid nucleation score of 0.142.
For EASNCFAIRHFENKFAVETLICAFTMHQQRSWWR, the amyloid nucleation score was “inactive”.
With EASNCFAIRHFENKFAVETLICYLPFAIYHDGAT the amyloid nucleation score was 6.43.
Sequence EASNCFAIRHFENKFAVETLICAITFGVWGGYL has an amyloid nucleation score of 1.28.
For EASNCFAIRHFENKFAVETLICFRNVVCNDGWHL, the amyloid nucleation score was 0.498.
With EASNCFAIRHFENKFAVETLICVPIVATTEFAHM the amyloid nucleation score was “inactive”.
With EASNCFAIRHFENKFAVETLICKFRRWFGLRHVY the amyloid nucleation score was “inactive”.
In the case of EASNCFAIRHFENKFAVETLICGSL, the amyloid nucleation score is reported as -0.12.
In the case of EASNCFAIRHFENKFAVETLICAPGDSFLLVEMV, the amyloid nucleation score is reported as “inactive”.
In the case of EASNCFAIRHFENKFAVETLICDSQLFHGHECSG, the amyloid nucleation score is reported as “inactive”.
For EASNCFAIRHFENKFAVETLICKIVLPCRCMRRY, the amyloid nucleation score was 6.17.
In the case of EASNCFAIRHFENKFAVETLICCLFTLALMAKLG, the amyloid nucleation score is reported as 7.71.
In the case of EASNCFAIRHFENKFAVETLICFGRLELSKYVEA, the amyloid nucleation score is reported as 5.15.
For EASNCFAIRHFENKFAVETLICTSLQLVASSLLS, the amyloid nucleation score was “inactive”.
For EASNCFAIRHFENKFAVETLICLSGGRWPRGMVS, the amyloid nucleation score was “inactive”.
EASNCFAIRHFENKFAVETLICGSSSVY showed an amyloid nucleation score of -0.25.
In the case of EASNCFAIRHFENKFAVETLICKYGRTELLLEWT, the amyloid nucleation score is reported as “inactive”.
Work on EASNCFAIRHFENKFAVETLICGDVWCTCVGVLG yielded an amyloid nucleation score of 6.38.
Sequence EASNCFAIRHFENKFAVETLICMSWVPSSGIAFR has an amyloid nucleation score of 5.61.
For EASNCFAIRHFENKFAVETLICRCAVTLPVASS, the amyloid nucleation score was “inactive”.
Work on EASNCFAIRHFENKFAVETLICGRVEAAWLGRRL yielded an amyloid nucleation score of 0.00985.
With EASNCFAIRHFENKFAVETLICFVSTSNKKLHHW the amyloid nucleation score was “inactive”.
With EASNCFAIRHFENKFAVETLICLMLRQILASRWE the amyloid nucleation score was “inactive”.
For EASNCFAIRHFENKFAVETLICQFWSRLGRCGSL, the amyloid nucleation score was “inactive”.
EASNCFAIRHFENKFAVETLICFSDNPCERQRMF gave an amyloid nucleation score of 2.74.
With EASNCFAIRHFENKFAVETLICRDMY the amyloid nucleation score was “inactive”.
With EASNCFAIRHFENKFAVETLICVWLLYNVAGQCR the amyloid nucleation score was “inactive”.
For EASNCFAIRHFENKFAVETLICIGMSMAYGVGQR, the amyloid nucleation score was “inactive”.
With EASNCFAIRHFENKFAVETLICYWQHSRHQSMLW the amyloid nucleation score was “inactive”.
With EASNCFAIRHFENKFAVETLICNVMRTL the amyloid nucleation score was “inactive”.
With EASNCFAIRHFENKFAVETLICGVGLHRETWLTE the amyloid nucleation score was “inactive”.
In the case of EASNCFAIRHFENKFAVETLICPWPAIIYGHNLM, the amyloid nucleation score is reported as -0.187.
With EASNCFAIRHFENKFAVETLICDCRWFRLWVSGM the amyloid nucleation score was “inactive”.
With EASNCFAIRHFENKFAVETLICCMLHLSSLLDWR the amyloid nucleation score was “inactive”.
Sequence EASNCFAIRHFENKFAVETLICINLMNKRIFVLK has an amyloid nucleation score of -0.0846.
EASNCFAIRHFENKFAVETLICWPYASNKATTGE gave an amyloid nucleation score of 5.08.
In the case of EASNCFAIRHFENKFAVETLICFACNPFVGNQWR, the amyloid nucleation score is reported as 9.3.
For EASNCFAIRHFENKFAVETLICMVWVLFYSFSQL, the amyloid nucleation score was “inactive”.

Same assay, conditions: random library (experiment): 2
In the case of EASNCFAIRHFENKFAVETLICVNRFGHATRV, the amyloid nucleation score is reported as “inactive”.
In the case of EASNCFAIRHFENKFAVETLICVCLRSSSMVCWC, the amyloid nucleation score is reported as “inactive”.
For EASNCFAIRHFENKFAVETLICIYGTALKWTCID, the amyloid nucleation score was “inactive”.
EASNCFAIRHFENKFAVETLICWNC gave an amyloid nucleation score of 8.03.
With EASNCFAIRHFENKFAVETLICFAVWICYAHAYS the amyloid nucleation score was “inactive”.
With EASNCFAIRHFENKFAVETLICGDWSFHIYWCGV the amyloid nucleation score was “inactive”.
With EASNCFAIRHFENKFAVETLICVKTPQYYFRYLL the amyloid nucleation score was “inactive”.
In the case of EASNCFAIRHFENKFAVETLICYLDVGGWRVISW, the amyloid nucleation score is reported as “inactive”.
In the case of EASNCFAIRHFENKFAVETLICCYLLPSNSSTSS, the amyloid nucleation score is reported as 7.53.
For EASNCFAIRHFENKFAVETLICKKLFYGIFSRWS, the amyloid nucleation score was “inactive”.
In the case of EASNCFAIRHFENKFAVETLICVKSYFGSQAEAC, the amyloid nucleation score is reported as “inactive”.
For EASNCFAIRHFENKFAVETLICGLTRIVGVQANF, the amyloid nucleation score was “inactive”.
With EASNCFAIRHFENKFAVETLICEIVRVSSNPYSR the amyloid nucleation score was 2.03.
For EASNCFAIRHFENKFAVETLICANVI, the amyloid nucleation score was “inactive”.
With EASNCFAIRHFENKFAVETLICRSCDNVHWLMGQ the amyloid nucleation score was “inactive”.
With EASNCFAIRHFENKFAVETLICRHLIVHRTSFVS the amyloid nucleation score was “inactive”.
Sequence EASNCFAIRHFENKFAVETLICLFSYCSTSLVTF has an amyloid nucleation score of 0.0202.
For EASNCFAIRHFENKFAVETLICLTGK, the amyloid nucleation score was “inactive”.
In the case of EASNCFAIRHFENKFAVETLICFFVLHTVIEVWS, the amyloid nucleation score is reported as “inactive”.
With EASNCFAIRHFENKFAVETLICFHEC the amyloid nucleation score was 2.48.
In the case of EASNCFAIRHFENKFAVETLICME, the amyloid nucleation score is reported as “inactive”.
EASNCFAIRHFENKFAVETLICHISIKGLCNRL gave an amyloid nucleation score of 2.98.
For EASNCFAIRHFENKFAVETLICLMMYMCLTFVA, the amyloid nucleation score was “inactive”.
With EASNCFAIRHFENKFAVETLICQNTFCFMRQMSE the amyloid nucleation score was 3.25.
With EASNCFAIRHFENKFAVETLICWT the amyloid nucleation score was “inactive”.
In the case of EASNCFAIRHFENKFAVETLICIPERAYLMQILR, the amyloid nucleation score is reported as “inactive”.
For EASNCFAIRHFENKFAVETLICDTAIVWPRLVTG, the amyloid nucleation score was “inactive”.
Sequence EASNCFAIRHFENKFAVETLICESLWGYSGLRFV has an amyloid nucleation score of -0.519.
With EASNCFAIRHFENKFAVETLICMSTWGKWPGYRE the amyloid nucleation score was 2.63.
EASNCFAIRHFENKFAVETLICTSYDKD showed an amyloid nucleation score of 0.
With EASNCFAIRHFENKFAVETLICYHGVASNYSHCN the amyloid nucleation score was 4.86.
For EASNCFAIRHFENKFAVETLICATFRWGIEIISK, the amyloid nucleation score was -0.593.
In the case of EASNCFAIRHFENKFAVETLICLMGFDRVSKLIP, the amyloid nucleation score is reported as “inactive”.
EASNCFAIRHFENKFAVETLICLK gave an amyloid nucleation score of 1.08.

Same assay, conditions: random library (experiment): 3
For EASNCFAIRHFENKFAVETLICDRCLGDRRGSFR, the amyloid nucleation score was “inactive”.
With EASNCFAIRHFENKFAVETLICKRSGWRCARVRR the amyloid nucleation score was “inactive”.
Work on EASNCFAIRHFENKFAVETLICVRQMGANVRPGD yielded an amyloid nucleation score of 1.36.
In the case of EASNCFAIRHFENKFAVETLICTLHFGYFGDMPG, the amyloid nucleation score is reported as “inactive”.
With EASNCFAIRHFENKFAVETLICQQMRSSFKPSTV the amyloid nucleation score was “inactive”.
Work on EASNCFAIRHFENKFAVETLICGPYL yielded an amyloid nucleation score of 0.
With EASNCFAIRHFENKFAVETLICIMAYALRPQSAF the amyloid nucleation score was “inactive”.
In the case of EASNCFAIRHFENKFAVETLICCFHWAHVCTAYV, the amyloid nucleation score is reported as “inactive”.
In the case of EASNCFAIRHFENKFAVETLICLPESGHCCVGHP, the amyloid nucleation score is reported as 5.24.
With EASNCFAIRHFENKFAVETLICTSMIRKETLWEC the amyloid nucleation score was “inactive”.
With EASNCFAIRHFENKFAVETLICPTEGRTALGRSG the amyloid nucleation score was “inactive”.
With EASNCFAIRHFENKFAVETLICVPVGSFKMDRQG the amyloid nucleation score was “inactive”.
In the case of EASNCFAIRHFENKFAVETLICPLPPRYMFELEG, the amyloid nucleation score is reported as “inactive”.
In the case of EASNCFAIRHFENKFAVETLICTSNT, the amyloid nucleation score is reported as “inactive”.
In the case of EASNCFAIRHFENKFAVETLICRSQWDGAREPAG, the amyloid nucleation score is reported as “inactive”.
With EASNCFAIRHFENKFAVETLICVVSCY the amyloid nucleation score was “inactive”.
For EASNCFAIRHFENKFAVETLICVRFWARVHRVHQ, the amyloid nucleation score was “inactive”.
EASNCFAIRHFENKFAVETLICWEVKWGRREVGL gave an amyloid nucleation score of 1.74.
With EASNCFAIRHFENKFAVETLICDEQGAVVPQGVG the amyloid nucleation score was “inactive”.
In the case of EASNCFAIRHFENKFAVETLICKISWLRWDCKFR, the amyloid nucleation score is reported as 1.68.
For EASNCFAIRHFENKFAVETLICWLSIIYLPGGV, the amyloid nucleation score was “inactive”.
In the case of EASNCFAIRHFENKFAVETLICGNPIGSPKWEKG, the amyloid nucleation score is reported as “inactive”.
In the case of EASNCFAIRHFENKFAVETLICCKQTLARRLRGM, the amyloid nucleation score is reported as “inactive”.
With EASNCFAIRHFENKFAVETLICETQCRPCVIRWR the amyloid nucleation score was “inactive”.
With EASNCFAIRHFENKFAVETLICWVACRLVRVIHR the amyloid nucleation score was 0.0944.
With EASNCFAIRHFENKFAVETLICYPAFRPGLRWTV the amyloid nucleation score was “inactive”.
With EASNCFAIRHFENKFAVETLICTFSPSMKLDMWH the amyloid nucleation score was “inactive”.
For EASNCFAIRHFENKFAVETLICVCKDSIRVVGWI, the amyloid nucleation score was “inactive”.
For EASNCFAIRHFENKFAVETLICVGRVGSGCWRVG, the amyloid nucleation score was 4.45.
Sequence EASNCFAIRHFENKFAVETLICLSNVSLTELDL has an amyloid nucleation score of 5.16.
For EASNCFAIRHFENKFAVETLICGRWLLLGREDGT, the amyloid nucleation score was “inactive”.
For EASNCFAIRHFENKFAVETLICDRCLRSELGSRS, the amyloid nucleation score was “inactive”.
In the case of EASNCFAIRHFENKFAVETLICPRCSLHLSVTFA, the amyloid nucleation score is reported as “inactive”.
EASNCFAIRHFENKFAVETLICMVLPAWRLWS showed an amyloid nucleation score of 5.29.
